Legend:
[1] = system: powdery mildew (Podosphaera aphanis); experiment: Powdery mildew in strawberries, controlled environment trial; details: zosteric acid at 3%, 6%, 9%
Puccinia striiformis = experiment: Yellow rust in wheat, greenhouse trial, contact fungicide; details: 10% zosteric acid with 0.1% Tween

O=C(O)/C=C/c1ccc(OS(=O)(=O)O)cc1 [zosteric acid] was tested, and the “efficacy compared with standard fungicide Karma (3 kg/ha)” value [1] was “not statistical difference between the efficacy of Karma and the zosteric acid treatments”, the “control of disease development (% area of leaves infected)” value ([1]; four applications day 0, 7, 14, 21, FIG. 6, evaluated 30 days after first treatment) was “efficient at controlling disease development at all the concentrations tested” and the “efficacy compared with currently used fungicides” value (Puccinia striiformis) was “not as effective in preventing disease as currently used fungicides”. For the same compound, the “development of yellow rust” value (Puccinia striiformis; 150 L/ha, sprayed one day before inoculation) was “drastically reduces the development of yellow rust”.
